Among the data in the RNAGym collection of RNA variant scans (doi:10.7554/elife.90254) are self-cleavage values, retold here.

Read counts are not given, so values of variants with three or more changes are uncertain.

B1: LINE1-mini (parent)
chain: GGCAGAGCUCAACACAGCGUGGCAAAGUGGCUGUGGCUAGACUGCC

The variants in the data set derive from B1. In words: self-cleavage, relative activity (ratio to wild type); higher = more cleavage; in vitro, sequencing; the parent is a self-cleaving ribozyme.
For GGCAGAUCUCAACACGGCGUGGCAAAGUGGCUGUCGCUAGACUUCC, the self-cleavage was determined as 0.04. On to GGCAGAUCUCAACUCAGCGUGGCAAAGUGUCUGUGGCUUGUCUGCC, for which the self-cleavage was 0.11. With GGCAGAUGUCAAUACAGCGUUGCAAAGUUGCUGUGGCUGGACUGCC the figure was 0.18; with GGCAGAUCUCAACACAGCGUGGCACACUGGCUGUGGCUAGACUACC, 0.11; with GGCAGAUCUCAACACAGCGUGGCACACUGGUUGUGGCUAGACUGCC, 0.03. For GGCAGAUCUCAACACUGCGUGGCAAAGUGGCUGUGGGUAGACUGCC, the self-cleavage was determined as 0.31. Regarding GGCAGAUCUCAACACGGCGUUGGAUAGUGGCUGUGGCUAGACUGCC, the self-cleavage worked out at 0.03. Regarding GGCAGAUCUCACCACAGCGUGGCAAAGUAGCUGUGGCUAGACUGCC, the self-cleavage was determined as 0.01. For the variant GGCAGAUAUCAACACAGCGUGGCAAAGUGACUGUGGCUAGACUGCC, the self-cleavage amounted to 0.3. In the case of GGCAGAUCUCAACAAAGCGUGGUAGAGUGGCUGUGAGUGGACUGCC, the self-cleavage came out at 0.03. Regarding GGCAGAUCUCAACACGGCGUGGCAAAGUGGCUGUGGAUAGACUGCC, the self-cleavage was found to be 0.02. Consider GGCAGAUCUCUACACAGGGUGGCAAAGUGGCAGAGGCUAGACUGCC, for which the self-cleavage amounted to 0.01.

Regarding GGCAGAUCUCAACACAGCGUGGCAAGGUGGCUGAGGCUAGACUGCC, the self-cleavage is 0.04. With GGCAGAUAUUAACACAGCGUUGAAAAGUGGCUGUGGCUAGACUGCC, the self-cleavage is 0.05.

Turning to GGCAGAUCUGUACACAGCGUGGCAAAGUGGCUGUGGCUAGACUGCC, the self-cleavage is 0.02. On to GGCAGAUCUCAUAACAGCGUGGCAAAGUGGCUGUGGCUAUACUGCC, for which the self-cleavage came out at 0.03. In the case of GGCAGAUCUAAACACAGCGUGGCAAAGUGCCUGUGGCUAGACUGCC, the self-cleavage was 0.01.

For GGCAGACCUCAACACAGCGUGGCAAAGGGGCUAUGGCUAGACUGCC, the self-cleavage was determined as 0.09. For GGCAGAUCUCAACACUGCGUGGCUGAGUGGCUGUGGUUAGACUACC, the self-cleavage was 0.07.

Turning to GGCAGAUCUCAACGCAGCGUGGUAAAGUGGCUGUGGCUAGACUGCC, the self-cleavage came out at 0.35. With GGCAGAUCUCACCACAGCGUGGCAAAGUGGCAGUGGCUAGACUGCC the figure was 0.02; with GGCAGAUCUCAACACAGCGUGGAAAAGUUGCUUUGGCUAGACUGCC, 0; with GGCAGAUCUCGACACAGCGCGGCAAAGUGGCUCUGGCUAGACUGCC, 0.01. For GGCAGACCUCAACACAGCGGGGCAAAGUGGCUGUGGCUAGAUUGCC, the self-cleavage came out at 0.05.

In the case of GGCAGAUCUCAACAAAGUGUGGCAAAGUGGCUGUGGCUAGACUGCC, the self-cleavage stood at 0.1. Regarding GGCAGAUCUAAAAACAGCGUGUCAAAGUGGGUGUGGCUAGACUGGC, the self-cleavage is 0.01. On to GGCAGAUCUCUACACAGCGUGGCAAAGUGGCUGAGGCUAGACUGCC, for which the self-cleavage turned out to be 0.13. As to GGCAGAUCUCUACACAGCGUGGCAAAGUGGCUGGGGCUAGACUGCC, the self-cleavage was determined as 0.02. On to GGCAGAUCUCAACACAGCGUGGCAUAGUGGCUGUGGCAAGACUGCC, for which the self-cleavage worked out at 0.03.

As for GGCAGAUCUCAACCCAGCGUGGCAAAGUGGCUGUAACUAGACUGCC, the self-cleavage was 0.12. For the variant GGCAGACCUCAACACAGCGGGGCAAAGUGGCUGUUGCUAAACUGGC, the self-cleavage stood at 0.09. With GGCAGAUCUCAACACAGAGUGGCAAAGCGGCUGUGGCUAGACUGCC the figure was 0.03. On to GGCAGAUCUCAACCAAGCGUGUAAAAGUGGCUGUGGCUAGACUGCC, for which the self-cleavage came to 0.02. As to GGCAGAUCUCUACACAGCGUGGCAAAGUGGCUUUGGCUAGACUCAC, the self-cleavage amounted to 0.03. For GGCAGAUCUCAAUACAGCGUGGCAAUGUGGCUGUGGCUAGACUGCC the value was 0.1. With GGCAGAUCUCAAGACAGCAUGGCAAACUGGCUGUGGCUAGACUGUC the figure was 0.12; with GGCAGAUAUAAACACAGCGUGCGAAAGUGGCUGUGGCUAGACUGCC, 0.03. As to GGCAGAUCUCAACACCGCGUGGAAAAGUGGCUGUGGCUAGACUGCC, the self-cleavage stood at 0. GGCAGAUCUCAACAAAGGGUGGCAAAGUGGCUGUGGCCAGUCUGCC: the self-cleavage turned out to be 0.25. Consider GGCAGAUCUCAACAUAGCAUGGCAAAGUGGCUUUGGCUAGACUGCC, for which the self-cleavage came to 0.17. As to GGCAGAUCUCAACACAGCGUGGCGUAGUGGCUGUGGCUAGACUGCC, the self-cleavage came to 0.09. With GGCAGAUCUCAAUACAGGGUGGCAAGGUGGCUUUGACUAGGCUGCC, the self-cleavage was 0.05.

Consider GGCAGAUUUCAACACAGCGUGGCAAAGUGUUUGUGGGUAGAAUGCC, for which the self-cleavage was 0.07.

For GGCAGAUCUCAAAACAGCGUGUGAAAGUGCCUGUGGCUAGACUGCC, the self-cleavage was determined as 0.1.

On to GGCAGAUGUCAACACAGCUUAGAACAGUGGCUGUGGCUAUACUGCC, for which the self-cleavage stood at 0.05. Consider GGCAGAUCUCAUCACAGCGUGGCAAAGUGGCUGUGGCUAUACUGCU, for which the self-cleavage was found to be 0.23. On to GGCAGAUGUCAACACAGCGCGGCAAAGUAGCUGGGGCUAGACUGCC, for which the self-cleavage was found to be 0.06.

GGCAGACCUCAACACAGCGUGGCAAAGCGGCUGUGGCUAGACUUCC: the self-cleavage was determined as 0.08. Consider GGCAGAUCUCAACACUGCGUGGCAUAGUGGCUGUGGCUAGACUGCC, for which the self-cleavage is 0.11.

For GGCAGAUAUCAACACAGCGUGGCUAAGUGGAUGUGGCUAGGCUGCC, the self-cleavage came out at 0.18. Regarding GGCAGAUCUCGACACAGAGUGGCAAAGUGACUGUGGCUAGACUGCC, the self-cleavage was 0.02. With GGCAGAUCUCGACACAGCGUGGCUAAGUGGGUGUGGCUAGACUGCU, the self-cleavage was 0.01. Consider GGCAGAUCUCAACUCAGCGUGGCAAAGUGGCUGUGGCUAGACUCCC, for which the self-cleavage was 0.07.

For GGCAGAUCUAAACUAAGCUUGGCAAAGUGGUUGUGGCUAGACUGCC, the self-cleavage is 0.03. Consider GGCAGACCUCAACACAGCGCGGCAAACUGGCAGUGGCUAGACUGCC, for which the self-cleavage amounted to 0.01.

On to GGCAGAUCUCAACACGGCGUGGCAAAGUGGAUGUGGCUAGACUGGC, for which the self-cleavage was found to be 0.26.
